# Assay results reported in patent publication US20220091128A1, “SYSTEM AND METHOD FOR LIGAND THERMAL ANALYSIS” (Portland State University, priority 2019, published 2022).
# Values joined by “and” are separate entries in the source; they are usually repeats but may differ in a detail not shown here. Equal values may be shown once.
# What was measured:
# [1] = target: T1, human serum albumin (HSA) (Homo sapiens, UniProt P02768); experiment: DSC thermograms of HSA with ligand (single-ligand titration); assay type: binding; conditions: for Tm / ΔG37^O / ΔHcal / ΔScal: thermal denaturation of HSA
# T1 construct: purchased Sigma Aldrich (St. Louis, Mo.)
# Description: Chemicals and reagents: Plasma and highly pure plasma proteins are sourced from commercial suppliers. Standard reagents are sourced from commercial suppliers. Samples are prepared in standard phosphate-buffered saline (PBS) buffer. In some examples, human plasma and serum albumin were purchased from Sigma Aldrich (St. Louis, Mo.) and received as lyophilized powder. Plasma was product number: P9523, lot number: SLBT0202. […] In vivo, the standard state of HSA is most certainly bound to some extent by fatty acids. Plasma and HSA stock solutions were prepared by re-suspending the appropriate amount of powder in buffer. Samples were prepared by diluting stock solutions to a final concentration of 1.5-2.0 mg/mL.
# Protein concentration was approximately 2 mg/ml.
# In a DSC melting experiment, the supplemental power supplied to the sample cell (in μW) necessary to keep the sample temperature equal to the reference temperature is continually monitored. […] Supplemental power is directly related to the molar heat capacity at constant pressure, ΔCp. Curves of ΔCp versus T provide an evaluation of the thermodynamic enthalpy. To enable direct comparisons in some cases, power (μW) versus T plots (instead of ΔCp versus T curves) were used for the following reason.
# Analysis of DSC data was performed using the Nanoanalyze software package, version 3.7.5, provided by T.A. Instruments. […]
# From the thermograms, semi-quantitative evaluations of the thermodynamic parameters ΔHcal, ΔScal and ΔGcal(37° C.) were obtained at each ligand concentration.
# These curves were constructed from titrations of DM1 with HSA. The Tm and ΔGcal(37° C.) were evaluated. The values were normalized against standard HSA and plotted versus ligand concentration to provide the dose curves in FIG. 20A (Tm) and FIG. 20B (ΔGcal(37° C.)).
# Natural HSA samples were prepared at pH 6.0 and pH 8.0 and examined by DSC. […] From DSC melting curves thermodynamic parameters for HSA/ligand mixtures were evaluated.
# human plasma = experiment: DSC thermograms of plasma with ligand; assay type: binding; conditions: 100 μM ligand (FIG. 10A)
# biotinylated HSA (HSAB) = biotinylated HSA (HSAB) (Homo sapiens, UniProt P02768); experiment: DSC thermograms of biotinylated HSA (HSAB) with ligands; assay type: binding
# [2] = target: T1, human serum albumin (HSA); experiment: Two-ligand (NAP + BCG) binding to standard HSA by DSC
# biotinylated HSA (HSAB), sequence (P02768 25-609): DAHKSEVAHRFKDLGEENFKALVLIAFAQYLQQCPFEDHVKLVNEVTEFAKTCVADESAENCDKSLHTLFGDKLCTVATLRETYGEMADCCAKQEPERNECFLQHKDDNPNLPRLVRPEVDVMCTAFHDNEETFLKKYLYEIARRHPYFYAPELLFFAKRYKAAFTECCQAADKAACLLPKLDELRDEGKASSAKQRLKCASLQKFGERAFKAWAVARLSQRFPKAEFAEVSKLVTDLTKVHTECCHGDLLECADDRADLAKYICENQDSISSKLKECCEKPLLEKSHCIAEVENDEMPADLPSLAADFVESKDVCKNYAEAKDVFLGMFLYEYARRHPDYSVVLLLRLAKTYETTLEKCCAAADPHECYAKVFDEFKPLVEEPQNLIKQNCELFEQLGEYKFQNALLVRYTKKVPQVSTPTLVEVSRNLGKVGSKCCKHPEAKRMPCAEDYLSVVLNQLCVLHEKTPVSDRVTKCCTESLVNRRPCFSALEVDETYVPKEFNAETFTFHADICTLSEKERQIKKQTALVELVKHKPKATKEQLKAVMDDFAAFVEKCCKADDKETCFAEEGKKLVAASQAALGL
# T1 sequence (P02768 25-609): as above
smiles,measurement,setting,value
"COc1ccc2cc([C@H](C)C(=O)O)ccc2c1 [NAP, naproxen]",ΔHcal of HSA/ligand,"[1]; HSA, 100 μM ligand (text, FIG. 10B)",181.7 kcal/mol and 181 kcal/mol
same,Implied number of sites,[1]; from dose response curves with HSA,6
same,Tm,[1]; ligand 1 μM,63.2 °C
same,ΔG37^O,[1]; ligand 1 μM,14.36 kcal/mol
same,ΔHcal,[1]; ligand 1 μM,184.38 kcal/mol
same,ΔScal,[1]; ligand 1 μM,548.18 cal/molK
same,Tm,[1]; ligand 10 μM,63.5 °C
same,ΔG37^O,[1]; ligand 10 μM,16.40 kcal/mol
same,ΔHcal,[1]; ligand 10 μM,208.65 kcal/mol
same,ΔScal,[1]; ligand 10 μM,619.86 cal/molK
same,Tm,[1]; ligand 25 μM,64.2 °C
same,ΔG37^O,[1]; ligand 25 μM,17.02 kcal/mol
same,ΔHcal,[1]; ligand 25 μM,211.07 kcal/mol
same,ΔScal,[1]; ligand 25 μM,625.67 cal/molK
same,Tm,[1]; ligand 50 μM,66.1 °C
same,ΔG37^O,[1]; ligand 50 μM,17.86 kcal/mol
same,ΔHcal,[1]; ligand 50 μM,208.56 kcal/mol
same,ΔScal,[1]; ligand 50 μM,614.86 cal/molK
same,Tm,[1]; ligand 75 μM,66.8 °C
same,ΔG37^O,[1]; ligand 75 μM,17.90 kcal/mol
same,ΔHcal,[1]; ligand 75 μM,204.50 kcal/mol
same,ΔScal,[1]; ligand 75 μM,601.63 cal/molK
same,Tm,[1]; ligand 100 μM,68.2 °C
same,ΔG37^O,[1]; ligand 100 μM,17.60 kcal/mol
same,ΔHcal,[1]; ligand 100 μM,192.45 kcal/mol
same,ΔScal,[1]; ligand 100 μM,563.76 cal/molK
same,Tm,[1]; ligand 150 μM,68.7 °C
same,ΔG37^O,[1]; ligand 150 μM,17.96 kcal/mol
same,ΔHcal,[1]; ligand 150 μM,193.64 kcal/mol
same,ΔScal,[1]; ligand 150 μM,566.45 cal/molK
same,Tm,[1]; ligand 175 μM,68.8 °C
same,ΔG37^O,[1]; ligand 175 μM,17.90 kcal/mol
same,ΔHcal,[1]; ligand 175 μM,192.52 kcal/mol
same,ΔScal,[1]; ligand 175 μM,563.00 cal/molK
same,Tm,[1]; ligand 200 μM,68.9 °C
same,ΔG37^O,[1]; ligand 200 μM,17.92 kcal/mol
same,ΔHcal,[1]; ligand 200 μM,192.04 kcal/mol
same,ΔScal,[1]; ligand 200 μM,561.41 cal/molK
same,enthalpy (ΔHcal) of plasma with ligand,human plasma,149 kcal/mol
same,Binding Chemical Potentials (ΔG^O37),"biotinylated HSA (HSAB); HSAB 1:1 with 50 μM BCG, [NAP] 25 μM",21.35 kcal/mol
same,Binding Chemical Potentials (ΔG^O37),"biotinylated HSA (HSAB); HSAB 1:1 with 50 μM BCG, [NAP] 75 μM",21.92 kcal/mol
same,Binding Chemical Potentials (ΔG^O37),"biotinylated HSA (HSAB); HSAB 1:1 with 50 μM BCG, [NAP] 150 μM",23.32 kcal/mol
same,Binding Chemical Potentials (ΔG^O37),"biotinylated HSA (HSAB); HSAB 1:1 with 50 μM NAP, [BCG] 0 μM",20.84 kcal/mol
same,Binding Chemical Potentials (ΔG^O37),"biotinylated HSA (HSAB); HSAB 1:5 with 50 μM BCG, [NAP] 25 μM",23.10 kcal/mol
same,Binding Chemical Potentials (ΔG^O37),"biotinylated HSA (HSAB); HSAB 1:5 with 50 μM BCG, [NAP] 75 μM",25.45 kcal/mol
same,Binding Chemical Potentials (ΔG^O37),"biotinylated HSA (HSAB); HSAB 1:5 with 50 μM BCG, [NAP] 150 μM",26.36 kcal/mol
same,Binding Chemical Potentials (ΔG^O37),"biotinylated HSA (HSAB); HSAB 1:5 with 50 μM NAP, [BCG] 0 μM",23.97 kcal/mol
same,Binding Chemical Potentials (ΔG^O37),"biotinylated HSA (HSAB); HSAB 1:10 with 50 μM BCG, [NAP] 25 μM",23.00 kcal/mol
same,Binding Chemical Potentials (ΔG^O37),"biotinylated HSA (HSAB); HSAB 1:10 with 50 μM BCG, [NAP] 75 μM",24.03 kcal/mol
same,Binding Chemical Potentials (ΔG^O37),"biotinylated HSA (HSAB); HSAB 1:10 with 50 μM BCG, [NAP] 150 μM",25.93 kcal/mol
same,Binding Chemical Potentials (ΔG^O37),"biotinylated HSA (HSAB); HSAB 1:10 with 50 μM NAP, [BCG] 0 μM",23.15 kcal/mol
same,Binding Chemical Potentials (ΔG^O37),"[2]; HSA25BCG (pre-bound 25 μM BCG), [NAP] 25 μM",15.65 kcal/mol
same,Binding Chemical Potentials (ΔG^O37),"[2]; HSA25BCG (pre-bound 25 μM BCG), [NAP] 75 μM",17.81 kcal/mol
same,Binding Chemical Potentials (ΔG^O37),"[2]; HSA25BCG (pre-bound 25 μM BCG), [NAP] 150 μM",18.78 kcal/mol
same,Binding Chemical Potentials (ΔG^O37),"[2]; HSA25NAP (HSA + 25 μM NAP), [BCG] 0 μM",16.45 kcal/mol
same,Binding Chemical Potentials (ΔG^O37),"[2]; HSA50BCG (pre-bound 50 μM BCG), [NAP] 25 μM",17.12 kcal/mol
same,Binding Chemical Potentials (ΔG^O37),"[2]; HSA50BCG (pre-bound 50 μM BCG), [NAP] 75 μM",17.62 kcal/mol
same,Binding Chemical Potentials (ΔG^O37),"[2]; HSA50BCG (pre-bound 50 μM BCG), [NAP] 150 μM",18.96 kcal/mol
same,Binding Chemical Potentials (ΔG^O37),"[2]; HSA50NAP (HSA + 50 μM NAP), [BCG] 0 μM",16.92 kcal/mol
same,Binding Chemical Potentials (ΔG^O37),"[2]; HSA75BCG (pre-bound 75 μM BCG), [NAP] 25 μM",16.50 kcal/mol
same,Binding Chemical Potentials (ΔG^O37),"[2]; HSA75BCG (pre-bound 75 μM BCG), [NAP] 75 μM",18.23 kcal/mol
same,Binding Chemical Potentials (ΔG^O37),"[2]; HSA75BCG (pre-bound 75 μM BCG), [NAP] 150 μM",19.38 kcal/mol
same,Binding Chemical Potentials (ΔG^O37),"[2]; HSA75NAP (HSA + 75 μM NAP), [BCG] 0 μM",17.38 kcal/mol
same,Binding Chemical Potentials (ΔG^O37),"[2]; WT HSA with 50 μM BCG, [NAP] 25 μM",17.12 kcal/mol
same,Binding Chemical Potentials (ΔG^O37),"[2]; WT HSA with 50 μM BCG, [NAP] 75 μM",17.62 kcal/mol
same,Binding Chemical Potentials (ΔG^O37),"[2]; WT HSA with 50 μM BCG, [NAP] 150 μM",18.96 kcal/mol
same,Binding Chemical Potentials (ΔG^O37),"[2]; WT HSA with 50 μM NAP, [BCG] 0 μM",16.92 kcal/mol
